Results taken from a compilation of properties of binary mixtures (doi:10.1021/je9601671).
The densities may have been worked out from excess volumes.

Assay: xn = mol fraction of the nth substance listed
Conditions: 298.15 K, 100 kPa

Q: Which results are given for `CCCCCCCCN(CCCCCCCC)CCCCCCCC` + C1CCCCC1?
A: mass density (x1 = 0.0488): 778.3 kg/m3; mass density (x1 = 0.1): 782.3 kg/m3; mass density (x1 = 0.1503): 785.6 kg/m3; mass density (x1 = 0.1988): 788.4 kg/m3; mass density (x1 = 0.2456): 790.6 kg/m3; mass density (x1 = 0.2986): 792.9 kg/m3; mass density (x1 = 0.4459): 797.8 kg/m3; mass density (x1 = 0.5811): 800.9 kg/m3; mass density (x1 = 0.7606): 804 kg/m3; mass density (x1 = 0.8867): 805.6 kg/m3; mass density (x1 = 1): 806.9 kg/m3

Q: What does the source list for `CCCCCCCCN(CCCCCCCC)CCCCCCCC` + CCC(=O)O?
A: mass density (x1 = 0.1009): 940.6 kg/m3; mass density (x1 = 0.1976): 914.5 kg/m3; mass density (x1 = 0.2481): 902.4 kg/m3; mass density (x1 = 0.2955): 889.7 kg/m3; mass density (x1 = 0.4007): 864.8 kg/m3; mass density (x1 = 0.4399): 857.5 kg/m3; mass density (x1 = 0.4803): 850.8 kg/m3; mass density (x1 = 0.5303): 843.7 kg/m3; mass density (x1 = 0.5704): 838.7 kg/m3; mass density (x1 = 0.6226): 832.9 kg/m3; mass density (x1 = 0.6671): 828.7 kg/m3; mass density (x1 = 0.7339): 823.2 kg/m3; mass density (x1 = 0.846): 815.3 kg/m3

Q: With `CCCCCCCCN(CCCCCCCC)CCCCCCCC` + CCCCCC as the molecule, how does the mass density (x1 = 0.0516) read?
A: 681.1 kg/m3

Q: What about the mass density (x1 = 0.0992) of the same molecule?
A: 699.3 kg/m3

Q: What about the mass density (x1 = 0.1459) of the same molecule?
A: 714.2 kg/m3

Q: And the mass density (x1 = 0.2417)?
A: 737.8 kg/m3

Q: And the mass density (x1 = 0.3974)?
A: 763.4 kg/m3

Q: What about the mass density (x1 = 0.441) of the same molecule?
A: 768.6 kg/m3

Q: What about the mass density (x1 = 0.4861) of the same molecule?
A: 773.6 kg/m3

Q: What about the mass density (x1 = 0.5859) of the same molecule?
A: 783 kg/m3

Q: What about the mass density (x1 = 0.6868) of the same molecule?
A: 790.7 kg/m3

Q: And the mass density (x1 = 0.7689)?
A: 795.9 kg/m3

Q: And the mass density (x1 = 0.858)?
A: 800.7 kg/m3

Q: And the mass density (x1 = 0.9047)?
A: 803.1 kg/m3

Q: What about the mass density (x1 = 1) of the same molecule?
A: 806.9 kg/m3

Q: For `C1CCCCC1` + CCCCCCCCN(CCCCCCCC)CCCCCCCC, which mass density (x2 = 0) is on record?
A: 774 kg/m3

Q: With `CCC(=O)O` + CCCCCCCCN(CCCCCCCC)CCCCCCCC as the molecule, how does the mass density (x2 = 0) read?
A: 988 kg/m3

Q: Which mass density (x2 = 0) does the source give for `CCCCCC` + CCCCCCCCN(CCCCCCCC)CCCCCCCC here?
A: 655.9 kg/m3

Q: For `CCO` + CCCCCCCCN(CCCCCCCC)CCCCCCCC, which mass density (x2 = 0) is on record?
A: 785.7 kg/m3

Q: For `Cc1ccc(C)cc1` + CCCCCCCCN(CCCCCCCC)CCCCCCCC, which mass density (x2 = 0) is on record?
A: 856.6 kg/m3

Q: For `Cc1ccccc1` + CCCCCCCCN(CCCCCCCC)CCCCCCCC, which mass density (x2 = 0) is on record?
A: 862.2 kg/m3

Q: With `CCCCCCCCN(CCCCCCCC)CCCCCCCC` + CCO as the molecule, how does the mass density (x1 = 0.1494) read?
A: 798.3 kg/m3

Q: And the mass density (x1 = 0.1961)?
A: 800.2 kg/m3

Q: And the mass density (x1 = 0.2841)?
A: 802.7 kg/m3

Q: And the mass density (x1 = 0.6275)?
A: 806.4 kg/m3

Q: What about the mass density (x1 = 0.7297) of the same molecule?
A: 806.8 kg/m3

Q: What about the mass density (x1 = 0.7805) of the same molecule?
A: 806.9 kg/m3

Q: What about the mass density (x1 = 0.8074) of the same molecule?
A: 806.9 kg/m3

Q: What about the mass density (x1 = 0.8848) of the same molecule?
A: 807 kg/m3

Q: What about the mass density (x1 = 1) of the same molecule?
A: 806.9 kg/m3

Q: Which mass density (x1 = 0.0869) does the source give for `CCCCCCCCN(CCCCCCCC)CCCCCCCC` + Cc1ccc(C)cc1 here?
A: 843.7 kg/m3

Q: And the mass density (x1 = 0.1762)?
A: 834.7 kg/m3

Q: And the mass density (x1 = 0.3627)?
A: 823.1 kg/m3

Q: And the mass density (x1 = 0.4607)?
A: 819 kg/m3

Q: What about the mass density (x1 = 0.5627) of the same molecule?
A: 815.7 kg/m3

Q: What about the mass density (x1 = 0.665) of the same molecule?
A: 813 kg/m3

Q: What about the mass density (x1 = 0.7195) of the same molecule?
A: 811.8 kg/m3

Q: And the mass density (x1 = 0.8267)?
A: 809.7 kg/m3

Q: What about the mass density (x1 = 1) of the same molecule?
A: 806.9 kg/m3

Q: For `CCCCCCCCN(CCCCCCCC)CCCCCCCC` + Cc1ccccc1, which mass density (x1 = 0.1) is on record?
A: 843.4 kg/m3

Q: What about the mass density (x1 = 0.1999) of the same molecule?
A: 832.6 kg/m3

Q: What about the mass density (x1 = 0.4999) of the same molecule?
A: 816.8 kg/m3

Q: And the mass density (x1 = 0.5488)?
A: 815.3 kg/m3

Q: And the mass density (x1 = 0.5993)?
A: 813.9 kg/m3

Q: And the mass density (x1 = 0.699)?
A: 811.7 kg/m3

Q: And the mass density (x1 = 0.7496)?
A: 810.7 kg/m3

Q: What about the mass density (x1 = 0.8496) of the same molecule?
A: 809 kg/m3

Q: And the mass density (x1 = 0.8993)?
A: 808.3 kg/m3

Q: What about the mass density (x1 = 1) of the same molecule?
A: 806.9 kg/m3
